# Measurements as given in the supplement of paper PMC8728848.
# The other results are listed elsewhere or left out.
# B1: Pa IMPa (Pseudomonas aeruginosa), Q9I5W4 (protein)
# chain: MSLSTTAFPSLQGENMSRSPIPRHRALLAGFCLAGALSAQAATQEEILDAALVSGDSSQLTDSHLVALRLQQQVERIRQTRTQLLDGLYQNLSQAYDPGAASMWVLPANPDNTLPFLIGDKGRVLASLSLEAGGRGLAYGTNVLTQLSGTNAAHAPLLKRAVQWLVNGDPGAATAKDFKVSVVGVDKTAALNGLKSAGLQPADAACNALTDASCASTSKLLVLGNGASAASLSATVRARLQAGLPILFVHTNGWNQSSTGQQILAGLGLQEGPYGGNYWDKDRVPSSRTRTRSVELGGAYGQDPALVQQIVDGSWRTDYDWSKCTSYVGRTTCDDVPGLSDFSKRVDVLKGALDAYNQKAQNLFALPGTTSLRLWLLWADAVRQNIRYPMDKAADTARFQETFVADAIVGYVREAGAAQKELGSYAGQRQQSMPVSGSEETLTLTLPSAQGFTAIGRMAAPGKRLSIRIEDAGQASLAVGLNTQRIGSTRLWNTRQYDRPRFLKSPDIKLQANQSVALVSPYGGLLQLVYSGATPGQTVTVKVTGAASQPFLDIQPGEDSSQAIADFIQALDADKADWLEIRSGSVEVHAKVEKVRGSIDKDYGGDVQRFIRELNEVFIDDAYTLAGFAIPNQAKTPAIQQECAARGWDCDSETLHKLPGTQHINVDQYAQCGGGCSGNPYDQTWGLNPRGWGESHELGHNLQVNRLKVYGGRSGEISNQIFPLHKDWRVLREFGQNLDDTRVNYRNAYNLIVAGRAEADPLAGVYKRLWEDPGTYALNGERMAFYTQWVHYWADLKNDPLQGWDIWTLLYLHQRQVDKSDWDANKAALGYGTYAQRPGNSGDASSTDGNDNLLLGLSWLTQRDQRPTFALWGIRTSAAAQAQVAAYGFAEQPAFFYANNRTNEYSTVKLLDMSQGSPAWPFP
# Key:
# Experiment in all cases: glycan array binding signal (z-score within array); higher = stronger binding
# Conditions in all cases: glycan notation: IUPAC condensed, linker removed
# [1] = target: Fuc(a1-3)GlcNAc
# In short: (§1)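 Glycan array binding is given as a within-array Z-score, which can be read as non-binding when negative. The arrays, 3228 of them, came from the Consortium for Functional Glycomics database and were retained only where the protein sequence was available. Z-scores were averaged across arrays of the same protein sequence at different concentrations or buffers and across linkers.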
# [2] = target: Fuc(a1-3)[Gal(b1-4)]Glc6S
# In short: as §1
# [3] = target: Fuc(a1-3)[Gal(b1-4)]GlcNAc
# In short: as §1
# [4] = target: Fuc(a1-3)[Gal(b1-4)]GlcNAc(b1-2)Man
# In short: as §1
# [5] = target: Fuc(a1-3)[Gal(b1-4)]GlcNAc(b1-2)Man(a1-3)[Fuc(a1-3)[Gal(b1-4)]GlcNAc(b1-2)Man(a1-6)]Man(b1-4)GlcNAc(b1-4)GlcNAc
# In short: as §1
# [6] = target: Fuc(a1-3)[Gal(b1-4)]GlcNAc(b1-2)Man(a1-3)[Fuc(a1-3)[Gal(b1-4)]GlcNAc(b1-2)Man(a1-6)]Man(b1-4)GlcNAc(b1-4)[Fuc(a1-6)]GlcNAc
# In short: as §1
# [7] = target: Fuc(a1-3)[Gal(b1-4)]GlcNAc(b1-3)Gal(b1-3)[Fuc(a1-4)]GlcNAc
# In short: as §1
# [8] = target: Fuc(a1-3)[Gal(b1-4)]GlcNAc(b1-3)Gal(b1-4)[Fuc(a1-3)]GlcNAc
# In short: as §1
# [9] = target: Fuc(a1-3)[Gal(b1-4)]GlcNAc(b1-3)Gal(b1-4)[Fuc(a1-3)]GlcNAc(b1-3)Gal(b1-4)[Fuc(a1-3)]GlcNAc
# In short: as §1
# [10] = target: Fuc(a1-3)[Gal(b1-4)]GlcNAc(b1-3)GalNAc
# In short: as §1
# [11] = target: Fuc(a1-3)[Gal(b1-4)]GlcNAc(b1-6)GalNAc
# In short: as §1
# [12] = target: Fuc(a1-3)[Gal(b1-4)]GlcNAc(b1-6)[Gal(b1-3)GlcNAc(b1-3)]Gal(b1-4)Glc
# In short: as §1
# [13] = target: Fuc(a1-3)[Gal(b1-4)]GlcNAc6S
# In short: as §1
# [14] = target: Fuc(a1-3)[Gal3S(b1-4)]Glc
# In short: as §1
# [15] = target: Fuc(a1-3)[Gal3S(b1-4)]GlcNAc
# In short: as §1
# [16] = target: Fuc(a1-3)[Gal3S(b1-4)]GlcNAc6S
# In short: as §1
# [17] = target: Fuc(a1-3)[GalNAc(b1-4)]GlcNAc
# In short: as §1
# [18] = target: Fuc(a1-3)[GalNAc(b1-4)]GlcNAc6S
# In short: as §1
# [19] = target: Fuc(a1-4)GlcNAc
# In short: as §1
# [20] = target: Fuc(b1-3)GlcNAc
# In short: as §1
# [21] = target: Gal(a1-2)Gal
# In short: as §1
# [22] = target: Gal(a1-3)Gal
# In short: as §1
# [23] = target: Gal(a1-3)Gal(b1-3)GlcNAc
# In short: as §1
# [24] = target: Gal(a1-3)Gal(b1-3)GlcNAc(b1-2)Man
# In short: as §1
# [25] = target: Gal(a1-3)Gal(b1-3)GlcNAc(b1-2)Man(a1-3)[Gal(a1-3)Gal(b1-3)GlcNAc(b1-2)Man(a1-6)]Man(b1-4)GlcNAc(b1-4)GlcNAc
# In short: as §1
# [26] = target: Gal(a1-3)Gal(b1-3)GlcNAc(b1-3)GalNAc
# In short: as §1
# [27] = target: Gal(a1-3)Gal(b1-3)GlcNAc(b1-6)GalNAc
# In short: as §1
# [28] = target: Gal(a1-3)Gal(b1-3)[Fuc(a1-4)]GlcNAc(b1-2)Man(a1-3)[Gal(a1-3)Gal(b1-3)[Fuc(a1-4)]GlcNAc(b1-2)Man(a1-6)]Man(b1-4)GlcNAc(b1-4)GlcNAc
# In short: as §1
# [29] = target: Gal(a1-3)Gal(b1-4)Glc
# In short: as §1
# [30] = target: Gal(a1-3)Gal(b1-4)GlcNAc
# In short: as §1
# [31] = target: Gal(a1-3)Gal(b1-4)GlcNAc(b1-2)Man
# In short: as §1
# [32] = target: Gal(a1-3)Gal(b1-4)GlcNAc(b1-2)Man(a1-3)[Gal(a1-3)Gal(b1-4)GlcNAc(b1-2)Man(a1-6)]Man(b1-4)GlcNAc(b1-4)GlcNAc
# In short: as §1
# [33] = target: Gal(a1-3)Gal(b1-4)GlcNAc(b1-3)GalNAc
# In short: as §1
# [34] = target: Gal(a1-3)Gal(b1-4)GlcNAc(b1-6)GalNAc
# In short: as §1
# [35] = target: Gal(a1-3)Gal(b1-4)[Fuc(a1-3)]GlcNAc
# In short: as §1
# [36] = target: Gal(a1-3)Gal(b1-4)[Fuc(a1-3)]GlcNAc(b1-2)Man(a1-3)[Gal(a1-3)Gal(b1-4)[Fuc(a1-3)]GlcNAc(b1-2)Man(a1-6)]Man(b1-4)GlcNAc(b1-4)GlcNAc
# In short: as §1
# [37] = target: Gal(a1-3)GalNAc
# In short: as §1
# [38] = target: Gal(a1-3)[Gal(a1-4)]Gal(b1-4)GlcNAc
# In short: as §1
# [39] = target: Gal(a1-4)Gal(b1-3)GlcNAc(b1-2)Man(a1-3)[Gal(a1-4)Gal(b1-3)GlcNAc(b1-2)Man(a1-6)]Man(b1-4)GlcNAc(b1-4)GlcNAc
# In short: as §1
# [40] = target: Gal(a1-4)Gal(b1-4)Glc
# In short: as §1
# [41] = target: Gal(a1-4)Gal(b1-4)GlcNAc
# In short: as §1
# [42] = target: Gal(a1-4)Gal(b1-4)GlcNAc(b1-2)Man(a1-3)[Gal(a1-4)Gal(b1-4)GlcNAc(b1-2)Man(a1-6)]Man(b1-4)GlcNAc(b1-4)GlcNAc
# In short: as §1
# [43] = target: Gal(a1-4)Gal(b1-4)GlcNAc(b1-3)Gal(b1-4)Glc
# In short: as §1
# [44] = target: Gal(a1-4)GlcNAc
# In short: as §1
# [45] = target: Gal(a1-6)Glc
# In short: as §1
# [46] = target: Gal(b1-2)Gal
# In short: as §1
# [47] = target: Gal(b1-3)Gal
# In short: as §1
# [48] = target: Gal(b1-3)Gal(b1-4)GlcNAc
# In short: as §1
# [49] = target: Gal(b1-3)GalNAc
# In short: as §1
# [50] = target: Gal(b1-3)GalNAc(a1-3)[Fuc(a1-2)]Gal(b1-4)Glc
# In short: as §1
# [51] = target: Gal(b1-3)GalNAc(a1-3)[Fuc(a1-2)]Gal(b1-4)GlcNAc
# In short: as §1
# [52] = target: Gal(b1-3)GalNAc(b1-3)Gal
# In short: as §1
# [53] = target: Gal(b1-3)GalNAc(b1-3)Gal(a1-4)Gal(b1-4)Glc
# In short: as §1
# [54] = target: Gal(b1-3)GalNAc(b1-4)Gal(b1-4)Glc
# In short: as §1
# [55] = target: Gal(b1-3)GalNAc(b1-4)[Neu5Ac(a2-3)]Gal(b1-4)Glc
# In short: as §1
# [56] = target: Gal(b1-3)GlcNAc
# In short: as §1
# [57] = target: Gal(b1-3)GlcNAc(a1-3)Gal(b1-4)GlcNAc
# In short: as §1
# [58] = target: Gal(b1-3)GlcNAc(a1-6)Gal(b1-4)GlcNAc
# In short: as §1
# [59] = target: Gal(b1-3)GlcNAc(b1-2)Man
# In short: as §1
# [60] = target: Gal(b1-3)GlcNAc(b1-2)Man(a1-3)[Gal(b1-3)GlcNAc(b1-2)Man(a1-6)]Man(b1-4)GlcNAc(b1-4)GlcNAc
# In short: as §1
binder,measurement,setting,value
B1,glycan array binding signal (z-score),[1],-0.778
same,glycan array binding signal (z-score),[2],-0.367
same,glycan array binding signal (z-score),[3],0.063
same,glycan array binding signal (z-score),[4],0.117
same,glycan array binding signal (z-score),[5],-0.168
same,glycan array binding signal (z-score),[6],-0.246
same,glycan array binding signal (z-score),[7],0.038
same,glycan array binding signal (z-score),[8],-0.199
same,glycan array binding signal (z-score),[9],-0.017
same,glycan array binding signal (z-score),[10],-0.076
same,glycan array binding signal (z-score),[11],-0.32
same,glycan array binding signal (z-score),[12],-0.305
same,glycan array binding signal (z-score),[13],-0.132
same,glycan array binding signal (z-score),[14],-0.077
same,glycan array binding signal (z-score),[15],-0.278
same,glycan array binding signal (z-score),[16],0.067
same,glycan array binding signal (z-score),[17],-0.488
same,glycan array binding signal (z-score),[18],-0.085
same,glycan array binding signal (z-score),[19],-0.114
same,glycan array binding signal (z-score),[20],-0.299
same,glycan array binding signal (z-score),[21],-0.288
same,glycan array binding signal (z-score),[22],0.105
same,glycan array binding signal (z-score),[23],0.654
same,glycan array binding signal (z-score),[24],-0.472
same,glycan array binding signal (z-score),[25],0.632
same,glycan array binding signal (z-score),[26],-0.048
same,glycan array binding signal (z-score),[27],0.952
same,glycan array binding signal (z-score),[28],0.555
same,glycan array binding signal (z-score),[29],-0.354
same,glycan array binding signal (z-score),[30],-0.215
same,glycan array binding signal (z-score),[31],0.435
same,glycan array binding signal (z-score),[32],-0.24
same,glycan array binding signal (z-score),[33],-0.223
same,glycan array binding signal (z-score),[34],-0.318
same,glycan array binding signal (z-score),[35],-0.206
same,glycan array binding signal (z-score),[36],-0.155
same,glycan array binding signal (z-score),[37],-0.259
same,glycan array binding signal (z-score),[38],0.332
same,glycan array binding signal (z-score),[39],-0.317
same,glycan array binding signal (z-score),[40],-0.249
same,glycan array binding signal (z-score),[41],-0.01
same,glycan array binding signal (z-score),[42],-0.163
same,glycan array binding signal (z-score),[43],-0.463
same,glycan array binding signal (z-score),[44],-0.324
same,glycan array binding signal (z-score),[45],-0.327
same,glycan array binding signal (z-score),[46],0.524
same,glycan array binding signal (z-score),[47],-0.195
same,glycan array binding signal (z-score),[48],-0.419
same,glycan array binding signal (z-score),[49],-0.361
same,glycan array binding signal (z-score),[50],-0.36
same,glycan array binding signal (z-score),[51],-0.247
same,glycan array binding signal (z-score),[52],-0.165
same,glycan array binding signal (z-score),[53],-0.679
same,glycan array binding signal (z-score),[54],-0.547
same,glycan array binding signal (z-score),[55],-0.11
same,glycan array binding signal (z-score),[56],-0.34
same,glycan array binding signal (z-score),[57],1.27
same,glycan array binding signal (z-score),[58],-0.091
same,glycan array binding signal (z-score),[59],-0.24
same,glycan array binding signal (z-score),[60],-0.556
